# According to PubChem BioAssay AID624255 (Broad Institute, 2012):
# Hit rate of the full screen: of about 77,000 compounds, about 4,600 (6%) were called active. The shares of active, inactive and inconclusive entries below differ from those in the screen.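 Rule for the calls: active = mean inhibition above about 93%, with at least 55% of replicates each passing it (limit read from the data, passing the limit was not always enough); inconclusive = only one of those two conditions holds; inactive = neither condition holds.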
# Test: T. cruzi intracellular proliferation inhibitors, primary screen, cell-based, beta-gal Tulahuen parasites, NIH3T3 host, luminescence (AID 624255)
# Conditions: T. cruzi beta-gal in NIH3T3, GalScreen luminescence, 90 h; at 8.34 µM; stronger effect = higher value
row,SMILES,inhibition
1,CCCC#Cc1ccc([C@@H]2[C@@H](CO)N3CCCCN(C(=O)c4ccc5c(c4)OCO5)C[C@@H]23)cc1,active: 122%
2,C[C@@H]1CN([C@H](C)CO)S(=O)(=O)c2ccc(C#CCN(C)C)cc2O[C@@H]1CN(C)Cc1cccnc1,inactive: 75.1%
3,C[C@H](CO)N1C[C@H](C)[C@H](CN(C)C(=O)[C@H](Cc2ccccc2)N(C)C)OCc2ccccc2-c2c(n(C)c3ccccc23)C1=O,inconclusive: 97.7%
4,CCS(=O)(=O)N1CCCCN2[C@@H](CO)[C@H](c3ccc(-c4ccccc4F)cc3)[C@@H]2C1,inconclusive: 95.9%
5,N#C[C@@H]1[C@H](c2ccc(-c3cccc(F)c3)cc2)[C@@H](CO)N1C(=O)NC1CCCC1,inactive: 77.5%
6,C[C@@H]1CN([C@@H](C)CO)C(=O)Cc2cc(NC(=O)Cc3cn(C)c4ccccc34)ccc2O[C@@H]1CN(C)Cc1ccc(Cl)c(Cl)c1,inactive: 82.4%
7,COCC(=O)N1[C@@H](C#N)[C@@H](c2ccc(C#CCC3CCCC3)cc2)[C@@H]1CO,inconclusive: 95.6%
8,CCCNC(=O)C[C@@H]1CC[C@H]2[C@@H](COC[C@H](O)CN2C(=O)c2cccnc2)O1,inactive: -15.9%
9,COCC#Cc1ccc([C@H]2[C@@H](CO)N3CCCCN(S(=O)(=O)c4ccc(OC)cc4)C[C@@H]23)cc1,inconclusive: 111%
10,O=C(C[C@H]1C[C@@H]2c3cc(NS(=O)(=O)c4ccc(F)cc4)ccc3O[C@@H]2[C@H](CO)O1)NCc1ccc(Oc2ccccc2)cc1,active: 118%
11,CNC[C@H]1Oc2ncc(C#CCC3CCCC3)cc2C(=O)N([C@H](C)CO)C[C@H]1C,inconclusive: 105%
12,CC(C)NC(=O)N(C)C[C@H]1OCCCC[C@H](C)Oc2ccc(NC(=O)Cc3ccccc3)cc2C(=O)N([C@@H](C)CO)C[C@@H]1C,inactive: 22.7%
13,C[C@H]1CN([C@@H](C)CO)C(=O)c2cc(NS(=O)(=O)c3ccccc3)ccc2O[C@H]1CN(C)Cc1ccc(C(F)(F)F)cc1,inconclusive: 100%
14,Cc1noc(C)c1S(=O)(=O)Nc1ccc2c(c1)C(=O)N([C@H](C)CO)C[C@@H](C)[C@H](CN(C)S(=O)(=O)c1ccc(Cl)cc1)OCCCC[C@@H](C)O2,active: 104%
15,C/C=C/c1ccc2c(c1)O[C@H](CN(C)Cc1ccncc1)[C@H](C)CN([C@@H](C)CO)S2(=O)=O,inactive: 78.7%
16,C[C@H](CO)N1C[C@H](C)[C@@H](CN(C)C(=O)Nc2ccc(C(F)(F)F)cc2)OCCCC[C@H](C)Oc2ccc(NC(=O)Nc3ccc4c(c3)OCO4)cc2C1=O,active: 119%
17,COc1ccc(CN(C)C[C@H]2Oc3c(NC(=O)c4nc5ccccc5s4)cccc3C(=O)N([C@H](C)CO)C[C@@H]2C)cc1,inconclusive: 99.7%
18,C[C@@H]1CCCCO[C@H](CN(C)CC2CCCCC2)[C@@H](C)CN([C@H](C)CO)C(=O)c2cc(NC(=O)Nc3ccc(F)cc3)ccc2O1,inactive: 39.4%
19,Cc1ccccc1-c1ccc([C@@H]2[C@H](CO)N3CCCCN(C(=O)Nc4ccc(F)cc4)C[C@@H]23)cc1,active: 103%
20,C[C@@H]1CN([C@@H](C)CO)C(=O)Cc2cc(NC(=O)Cc3ccccc3)ccc2O[C@H]1CN(C)C(=O)Nc1cccc2ccccc12,inactive: 14.6%

row,SMILES,inhibition
1,C/C=C/c1ccc2c(c1)O[C@H](CN(C)Cc1ccc(F)cc1)[C@@H](C)CN([C@H](C)CO)S2(=O)=O,active: 104%
2,C[C@@H]1CN([C@@H](C)CO)C(=O)c2cccc(NS(=O)(=O)c3ccccc3)c2O[C@H]1CN(C)S(=O)(=O)c1ccccc1,inactive: 10.6%
3,C[C@@H]1CCCCO[C@@H](CN(C)C(=O)C2CCCCC2)[C@H](C)CN([C@@H](C)CO)C(=O)c2cc(NS(=O)(=O)c3ccc(Cl)cc3)ccc2O1,inconclusive: 105%
4,CCCC#Cc1ccc2c(c1)O[C@H](CN(C)Cc1ccc3c(c1)OCO3)[C@@H](C)CN([C@@H](C)CO)S2(=O)=O,inactive: 90.6%
5,C[C@H]1CN([C@@H](C)CO)C(=O)c2cc(NC(=O)Cc3ccccc3)ccc2O[C@H]1CN(C)Cc1ccc(C(=O)Nc2ccccc2N)cc1,inconclusive: 95.7%
6,C[C@@H]1CCCCO[C@H](CN(C)C(=O)Cc2ccccc2)[C@@H](C)CN([C@@H](C)CO)C(=O)c2cc(NC(=O)Nc3ccc4c(c3)OCO4)ccc2O1,inconclusive: 108%
7,O=C(C[C@@H]1C=C[C@H](NC(=O)Nc2ccccc2)[C@@H](CO)O1)NCc1cccc(F)c1,inconclusive: 97.4%
8,CCCC(=O)Nc1ccc2c(c1)OC[C@H](C)N(Cc1ccc(F)cc1)C[C@@H](C)[C@H](OC)CN(C)C2=O,inconclusive: 80.2%
9,CO[C@H](CN(C)C(=O)Nc1ccc(Cl)cc1)[C@@H](C)CN(Cc1ccccc1Cl)[C@@H](C)CO,inconclusive: 95.8%
10,O=C(Nc1ccc(Cl)cc1)N[C@@H]1CC[C@H](CCn2cc(-c3ccccc3F)nn2)O[C@@H]1CO,active: 102%
11,C[C@@H]1CN([C@@H](C)CO)C(=O)c2cc(NS(=O)(=O)c3ccc(Cl)cc3)ccc2O[C@@H](C)CCCCO[C@H]1CN(C)CC1CCCCC1,active: 108%
12,Cc1cccc(-c2ccc([C@H]3[C@H](CO)N4CCCCN(Cc5cccnc5)C[C@@H]34)cc2)c1,active: 104%
13,CC(C)NC(=O)N1CCCCN2[C@@H](CO)[C@H](c3ccc(Br)cc3)[C@@H]2C1,inactive: 59.8%
14,C[C@@H]1CCCCO[C@@H](CN(C)C(=O)Nc2ccc(C(F)(F)F)cc2)[C@H](C)CN([C@@H](C)CO)C(=O)c2cc(NS(=O)(=O)c3ccccc3)ccc2O1,inconclusive: 94.4%
15,COc1ccc(C#Cc2ccc3c(c2)O[C@@H](CN(C)C(=O)NC2CCCCC2)[C@H](C)CN([C@@H](C)CO)S3(=O)=O)cc1,inconclusive: 115%
16,COc1ccccc1NC(=O)N1CCCCN2[C@H](C1)[C@H](c1ccc(C#Cc3ccccc3)cc1)[C@@H]2CO,active: 114%
17,Cc1ccccc1S(=O)(=O)N1CC[C@@H]2[C@H]1c1cc(-c3ccccc3F)ccc1N[C@@H]2CO,inactive: -11%
18,C[C@@H]1CN([C@@H](C)CO)C(=O)c2cc(C3=CCCC3)cnc2O[C@H]1CN(C)C(=O)c1ccncc1,inactive: -75.2%
19,C[C@@H]1CN([C@@H](C)CO)C(=O)CCCn2nncc2CO[C@@H]1CN(C)C(=O)NC1CCCC1,inconclusive: 138%
20,C[C@H](CO)N1C[C@H](C)[C@H](CN(C)C(=O)c2ccccc2)OCCCC[C@H](C)Oc2ccc(NC(=O)c3ccccc3)cc2C1=O,inactive: 30.5%

row,SMILES,inhibition
1,O=C(c1cccc(F)c1)N1CCCCN2[C@H](CO)[C@H](c3ccc(C#CC4(O)CCCC4)cc3)[C@@H]2C1,inconclusive: 96.6%
2,Cc1cccc(S(=O)(=O)N2C[C@H]3[C@@H](c4ccccc42)[C@H](CO)N3CC2CCCC2)c1,inconclusive: 97.6%
3,C[C@H](CO)N1C[C@H](C)[C@@H](CN(C)C(=O)C2CCCCC2)Oc2ncc(C#CCc3ccccc3)cc2C1=O,inconclusive: 106%
4,CC(C)CC#Cc1ccc2c(c1)O[C@H](CN(C)CC1CCOCC1)[C@H](C)CN([C@H](C)CO)S2(=O)=O,inconclusive: 120%
5,COc1ccccc1-c1cnc2c(c1)C(=O)N([C@@H](C)CO)C[C@@H](C)[C@@H](CN(C)Cc1cccc(F)c1)O2,inconclusive: 70.8%
6,COc1ccc(NC(=O)Nc2ccc3c(c2)CC(=O)N([C@H](C)CO)C[C@H](C)[C@@H](CN(C)CC2CCCCC2)O3)cc1,inactive: 79.4%
7,CN(C)C(=O)c1cccc(-c2ccc([C@H]3[C@@H](CO)N4CCCCN(Cc5cccnc5)C[C@@H]34)cc2)c1,active: 101%
8,CCCNC(=O)N(C)C[C@H]1Oc2cc(-c3ccncc3)ccc2S(=O)(=O)N([C@@H](C)CO)C[C@@H]1C,active: 96.7%
9,C[C@H]1CN([C@@H](C)CO)S(=O)(=O)c2ccc(-c3cncnc3)cc2O[C@H]1CN(C)Cc1ccccc1,inconclusive: 98.3%
10,C[C@@H]1CN([C@H](C)CO)S(=O)(=O)c2ccc(C#Cc3ccc(F)cc3)cc2O[C@@H]1CN(C)S(C)(=O)=O,inconclusive: 104%
11,CN1c2ccc(-c3ccc(F)cc3)cc2[C@@H]2[C@@H](CCN2C(=O)Cc2cccnc2)[C@@H]1CO,inconclusive: 98.4%
12,C[C@@H]1CCCCO[C@H](CN(C)C(=O)c2ccccc2)[C@@H](C)CN([C@H](C)CO)C(=O)c2cc(NC(=O)Nc3ccc(C(F)(F)F)cc3)ccc2O1,inconclusive: 120%
13,COc1cccc(-c2ccc([C@H]3[C@H](C#N)N(C(=O)Cc4ccccc4)[C@H]3CO)cc2)c1,inactive: 94.9%
14,O=C(c1ccc(F)cc1)N1CCCCN2[C@H](C1)[C@H](c1ccc(/C=C/c3ccccc3)cc1)[C@@H]2CO,inconclusive: 96.7%
15,C[C@H](CO)N1C[C@H](C)[C@H](CN(C)C(=O)Nc2cccc3ccccc23)Oc2ncc(-c3cc4ccccc4o3)cc2C1=O,inconclusive: 97.9%
16,C[C@H](CO)N1C[C@H](C)[C@@H](CN(C)C(=O)Nc2ccc(F)cc2)OCCCC[C@H](C)Oc2ccc(NC(=O)Cc3ccccc3)cc2C1=O,active: 98%
17,CCC(=O)N[C@@H]1CC[C@H](CC(=O)NCc2ccccc2F)O[C@@H]1CO,inactive: -2.47%
18,Cc1cc(C(=O)Nc2cccc3c2O[C@@H](CN(C)Cc2ccc(C(=O)Nc4ccccc4N)cc2)[C@H](C)CN([C@@H](C)CO)C3=O)n(C)n1,inconclusive: 100%
